{
  "source": "the supplement of paper PMC12645437",
  "about": "“Orthogonal IMiD-Degron Pairs Induce Selective Protein Degradation in Cells” (ACS Chemical Biology, 2025)",
  "note": "The list shows a part of the results.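 Also: jurkat cells carrying a lentiviral library of mutant zinc finger degrons fused to EGFP plus mCherry, mCherry+ cells FACS sorted, degron abundance counted by next-generation sequencing.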",
  "data": [
    {"target": "no compound (DMSO)", "experiment": "log2 fold change of degron read counts, EGFP-low vs EGFP+ sorted cells; higher = lower degron-EGFP level without compound (poor expression or instability)", "conditions": "compound: DMSO control; 18 h", "values": [
      {"sequence": "FQCPICGHHFTQKGNLLRHIKL", "log2 fold change of degron read counts": 0.473},
      {"sequence": "FWCEICGAVFTQKGNLLRHIKL", "log2 fold change of degron read counts": -0.206},
      {"sequence": "FWCEQCGAAFTQKGNLLRHIKL", "log2 fold change of degron read counts": -0.765},
      {"sequence": "FTCDICGARFTQKGNLLRHIKL", "log2 fold change of degron read counts": -0.556},
      {"sequence": "FWCNQCGATFTQKGNLLRHIKL", "log2 fold change of degron read counts": 0.365},
      {"sequence": "FVCNQCGHYFTQKGNLLRHIKL", "log2 fold change of degron read counts": -0.0422},
      {"sequence": "FGCDICGAKFTQKGNLLRHIKL", "log2 fold change of degron read counts": -1.58},
      {"sequence": "LMCEICGFCCTQKGNLLRHIKL", "log2 fold change of degron read counts": 0.000358},
      {"sequence": "FACNQCGAMFTQKGNLLRHIKL", "log2 fold change of degron read counts": -0.363},
      {"sequence": "FMCSVCGHTFTQKGNLLRHIKL", "log2 fold change of degron read counts": -1.05},
      {"sequence": "FMCNQCGAAFTQKGNLLRHIKL", "log2 fold change of degron read counts": -0.967},
      {"sequence": "LRCEICGFFCTQKGNLLRHIKL", "log2 fold change of degron read counts": 1.3},
      {"sequence": "LSCEICGFNCTQKGNLLRHIKL", "log2 fold change of degron read counts": -0.129},
      {"sequence": "FICEVCGACFTQKGNLLRHIKL", "log2 fold change of degron read counts": -0.365},
      {"sequence": "FMCEICGAYFTQKGNLLRHIKL", "log2 fold change of degron read counts": -0.537},
      {"sequence": "LECEICGFTCTQKGNLLRHIKL", "log2 fold change of degron read counts": -1.03},
      {"sequence": "FCCNQCGRAFTQKGNLLRHIKL", "log2 fold change of degron read counts": -0.276},
      {"sequence": "FYCEICGAGFTQKGNLLRHIKL", "log2 fold change of degron read counts": -1.25},
      {"sequence": "FHCPICGRGFTQKGNLLRHIKL", "log2 fold change of degron read counts": -2.01},
      {"sequence": "FWCEICGRKFTQKGNLLRHIKL", "log2 fold change of degron read counts": -0.632},
      {"sequence": "FQCDICGANFTQKGNLLRHIKL", "log2 fold change of degron read counts": -1.06},
      {"sequence": "FRCPICGHSFTQKGNLLRHIKL", "log2 fold change of degron read counts": -0.923},
      {"sequence": "FNCNQCGRAFTQKGNLLRHIKL", "log2 fold change of degron read counts": -0.773},
      {"sequence": "FKCEVCGAAFTQKGNLLRHIKL", "log2 fold change of degron read counts": -1.21},
      {"sequence": "FSCNVCGAYFTQKGNLLRHIKL", "log2 fold change of degron read counts": -0.187},
      {"sequence": "FKCDVCGARFTQKGNLLRHIKL", "log2 fold change of degron read counts": -0.959},
      {"sequence": "FQCNQCGAIFTQKGNLLRHIKL", "log2 fold change of degron read counts": -0.353},
      {"sequence": "FKCPQCGANFTQKGNLLRHIKL", "log2 fold change of degron read counts": -1.54},
      {"sequence": "FNCPVCGADFTQKGNLLRHIKL", "log2 fold change of degron read counts": -0.307},
      {"sequence": "FTCEQCGARFTQKGNLLRHIKL", "log2 fold change of degron read counts": -1.95},
      {"sequence": "FDCNQCGREFTQKGNLLRHIKL", "log2 fold change of degron read counts": -0.642},
      {"sequence": "FECEICGAWFTQKGNLLRHIKL", "log2 fold change of degron read counts": -1.25}
    ]}
  ]
}
